# Toxic doses and inconclusive results are not listed. Certain results were filed several times, with different values. The list is limited to them. The source may hold further records. Results that share an entry differ, and nothing given here explains why; they may come from other doses, times, organisms or constructs than stated.
# Tested on: L1210 leukemia ip in BDF1 mice, survival T/C
# Assay: NCI In Vivo Anticancer Drug Screen. Data for tumor model L1210 Leukemia (intraperitoneal) in B6D2F1 (BDF1) mice
# Conditions: endpoint: mean survival time, higher = longer survival
structure (smiles),measurement,setting,value
COc1ccc(CC(N)C(=O)O)cc1N(CCCl)CCCl (stereo not drawn),T/C,"dose: 0.3 mg/kg/injection, schedule: Q01DX009 (ip), vehicle: carboxymethylcellulose (CMC)",122 % of control and 151 % of control
COc1cc([C@@H]2c3cc4c(cc3[C@@H](OC3OC5COC(C)OC5C(O)C3O)[C@H]3COC(=O)[C@H]23)OCO4)cc(OC)c1O (stereo partly drawn),T/C,"dose: 8.0 mg/kg/injection, schedule: Q01DX009 (ip), vehicle: Klucel (hydroxypropylcellulose) (HPC)","107 % of control, 394 % of control, 480 % of control"
C1OC1[C@@H]1CC[C@H]1C1CO1 (stereo partly drawn),T/C,"dose: 200.0 mg/kg/injection, schedule: Q01DX001 (ip), vehicle: saline",118 % of control and 161 % of control

# — PubChem BioAssay AID248 (DTP/NCI, 2004)
